# Measured values published in publication PMC6919601, “Identification of Plasmodium dipeptidyl aminopeptidase allosteric inhibitors by high throughput screening” (PLoS ONE, 2019).
# In all, about 110,000 compounds went through this assay and about 230 (0.21%) showed an effect of 50% or more. The list shows a part of the results.
# Molecular target: DPAP1 (Plasmodium falciparum, UniProt Q8IIJ9)
# Experiment: primary screen, percent inhibition; read by cleavage of a fluorogenic dipeptide substrate; higher = more effect of the substance
# Design: species or system P. falciparum D10 trophozoite lysates; single well
# 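Also: 30 min substrate incubation versus DMSO and 10 µM JCP410 controls.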
# Sequence of DPAP1 (Q8IIJ9 whole entry, looked up): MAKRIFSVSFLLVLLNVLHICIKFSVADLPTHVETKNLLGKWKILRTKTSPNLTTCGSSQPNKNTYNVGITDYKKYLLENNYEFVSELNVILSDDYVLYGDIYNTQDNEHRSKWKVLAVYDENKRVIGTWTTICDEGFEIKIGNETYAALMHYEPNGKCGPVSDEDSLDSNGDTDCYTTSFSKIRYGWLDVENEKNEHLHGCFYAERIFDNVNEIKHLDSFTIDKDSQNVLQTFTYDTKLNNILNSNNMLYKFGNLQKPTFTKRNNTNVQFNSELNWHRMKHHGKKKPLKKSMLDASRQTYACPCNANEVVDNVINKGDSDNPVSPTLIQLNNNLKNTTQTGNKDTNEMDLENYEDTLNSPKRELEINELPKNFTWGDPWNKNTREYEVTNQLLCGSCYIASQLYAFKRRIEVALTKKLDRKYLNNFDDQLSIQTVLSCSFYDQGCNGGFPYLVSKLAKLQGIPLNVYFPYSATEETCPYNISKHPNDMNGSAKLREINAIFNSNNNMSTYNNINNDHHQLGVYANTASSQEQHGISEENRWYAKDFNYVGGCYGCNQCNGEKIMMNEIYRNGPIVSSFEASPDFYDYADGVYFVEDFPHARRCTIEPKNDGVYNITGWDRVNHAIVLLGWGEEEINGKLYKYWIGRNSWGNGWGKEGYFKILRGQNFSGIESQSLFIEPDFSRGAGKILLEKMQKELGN
row,SMILES,% Inhibition @ 10 uM [%]
1,CN(C)c1ccc(/C=C2/SC(N3CCOCC3)=NC2=O)cc1Br,4.89
2,O=C(C1CCCN(Cc2ccccc2Cl)C1)N1CCCCC1 (stereo not shown),-4.84
3,O=c1ccn(Cc2ccccc2)c2ccnc(C(F)(F)F)c12,-2.66
4,Cc1nn(C)c(C)c1CN(C)C(=O)c1cc2nc(-c3ccc4c(c3)OCO4)cc(C(F)(F)F)n2n1,8.69
5,CCN(CC)S(=O)(=O)c1ccc(C)c([N+](=O)[O-])c1,4.17
6,CC(C)(C)c1ccc(C(=O)N/C(=C\c2cccs2)C(=O)NCc2ccco2)cc1,2.36
7,COc1cc(C(=O)Nc2ccc(-c3cn4cccc(C)c4n3)cc2)cc(OC)c1OC,14.3
8,CC(C)CCNc1nc2c(S(=O)(=O)c3ccc(Cl)cc3)nnn2c2ccsc12,1.95
9,O=C(NC1CCCCCC1)C1CCC(CNc2c(N3CCOCC3)c(=O)c2=O)CC1 (stereo not shown),1.22
10,COc1ccc(N(CCC#N)S(=O)(=O)c2cccc3nsnc23)cc1,-3.48
11,O=C(NCCO)/C(=C/c1ccc2c(c1)OCO2)NC(=O)c1ccco1,-0.736
12,CC1C=CCC2C(=O)N(c3cccc(NC(=O)c4ccccc4)c3)C(=O)C12 (stereo not shown),3.26
13,CCOC(=O)c1c(NC(=O)c2cc(-c3ccc(OC)cc3)on2)sc2c1CCCC2,4.5
14,O=C(CN1C(=O)c2ccccc2C1=O)Nc1ccccc1-c1ccccc1,1.7
15,COc1ccc(S(=O)(=O)c2c(C)c(NC(=O)c3ccccc3)cc(C)c2O)cc1,-2.83
16,CCOC(=O)C1=C(CN2CCN(Cc3ccccc3)CC2)NC(=O)NC1c1ccc(OC)cc1 (stereo not shown),2.19
17,CN(Cc1ccccc1)S(=O)(=O)c1csc(C(N)=O)c1,-3.44
18,CC1CCCC(C)N1CCCNC(=O)C1CCCN(S(=O)(=O)N2CCCCC2)C1 (stereo not shown),-0.232
19,COc1ccc(N(CC(=O)N2CCC(C)CC2)S(C)(=O)=O)cc1,4.76
20,CC1CCN(C(=O)Cn2c3ccccc3c3cnnc(O)c32)CC1,1.38
21,CCOc1ccccc1N1CCN(S(=O)(=O)c2ccc(NC(C)=O)cc2)CC1,-3.24
22,COc1ccc(NC(=O)c2ccc(Br)o2)cc1,-2.42
23,CCc1ccc2occ(CC(=O)N(Cc3ccc(F)cc3)C3CCS(=O)(=O)C3)c2c1 (stereo not shown),2.62
24,O=C(O)CCCC(=O)Nc1ccc(Cl)c(Cl)c1,-4.35
25,CC(C)Cn1cc(C(=O)N(C)Cc2ccccc2)c2c3ccccc3n(C)c2c1=O,4.68

row,SMILES,% Inhibition @ 10 uM [%]
1,CCC1(C)Cc2c(sc3nc(SCC(=O)c4ccccc4)nc(N)c23)CO1 (stereo not shown),0.992
2,CCOc1c(Cl)cc(CNCCNC(=O)c2nonc2N)cc1OC,-9.21
3,O=C(Cc1c[nH]c2ccccc12)NCc1ccccc1,0.238
4,Cc1cc(C)c(C)c(S(=O)(=O)NCC(=O)Nc2sc3c(c2C(N)=O)CCCC3)c1C,4.83
5,Cc1ccc(-c2cc(-c3ccccc3Cl)[nH]n2)c(O)c1,-2.58
6,CCOC(=O)COc1ccccc1OCC,2.54
7,Cn1nnc2c(NCC(=O)C(C)(C)C)nc(Cc3ccc(Cl)cc3Cl)nc21,0.0367
8,CCn1cc(/C=C(\NC(=O)c2ccccc2)C(=O)NCc2ccco2)c2ccccc21,3.24
9,CCN1CCN(C(=O)CCc2c(C)nc3c(c(C)nn3-c3ccc(C)cc3)c2C)CC1,0.953
10,CC1CCN(S(=O)(=O)c2ccc(NC(=O)c3ccc(F)cc3)cc2)CC1,6.17
11,CC(C)(C)NC(=O)CCNS(=O)(=O)c1ccc2[nH]c(-c3ccccc3)nc2c1,3.04
12,CCOc1ccc(C2N=C(N)Nc3nc4ccccc4n32)cc1OC (stereo not shown),-1.68
13,COc1ccc(CNCCc2ccc(Cl)cc2Cl)cc1Br,4.61
14,O=C(Cc1cccc2ccccc12)Nc1ccc(F)cc1F,-1.25
15,CC1=C(C(=O)Nc2ccccc2)C(c2ccco2)C(C#N)=C(SCC(=O)c2cccc(Br)c2)N1 (stereo not shown),6.15
16,Cc1cc(C2(c3ccc(O)c(C)c3)C(=O)N(Cc3cccc4ccccc34)c3ccccc32)ccc1O,4.15
17,CCC(=O)N1C(C(=O)NCc2ccccc2)CSC12CCN(C)CC2 (stereo not shown),-8.35
18,O=C1c2ccccc2NC(c2ccccc2)N1Cc1ccccc1 (stereo not shown),1.61
19,COc1cc2c(C(=O)NCCC3=CCCCC3)cn(C)c(=O)c2cc1OC,3.34
20,Cc1cc(-c2ccc(S(=O)(=O)NC3CCCc4ccccc43)s2)on1 (stereo not shown),-3.23
21,CCOc1ccc(CC(=O)Nc2ccc(C)cc2)cc1OCC,-0.173
22,Cc1nnc(NC(=O)CSc2cn(Cc3ccccc3Cl)c3ccccc23)s1,-2.7
23,O=C(N/C(=C\c1ccc(O)cc1)C(=O)N1CCOCC1)c1ccccc1Cl,2.17
24,COc1ccc(CCNC(=O)CN2N=C(c3ccccc3)CCC2=O)cc1OC,-1.21
25,CCC(C)NC(=O)CCc1c(C)nc2nc(C)nn2c1C (stereo not shown),-2.25

row,SMILES,% Inhibition @ 10 uM [%]
1,COC(=O)c1ccccc1NC(=O)C(C)Oc1cccc(C)c1 (stereo not shown),0.161
2,O=C(Nc1ccccc1)N(CCCN1CCOCC1)Cc1cccc2ccccc12,0.316
3,O=C(COc1ccc(Br)cc1)N1CCCCC1,0.634
4,O=C(C(C(=O)N1CCCCC1)C12CC3CC(CC(C3)C1)C2)N1CCCCC1,6.94
5,Cn1c(=O)n(Cc2ccc(Cl)cc2)c(=O)c2c1nc(NCCO)n2Cc1ccccc1,3.93
6,COc1cc(/C=C2/NC(=O)N(CC(=O)Nc3ccc(C)cc3)C2=O)cc(Cl)c1O,3.5
7,O=C1NC(c2cccs2)C(C(=O)c2ccccc2)C(O)(C(F)(F)F)N1 (stereo not shown),-8.37
8,COc1ccccc1C1C(C#N)=C(N)Oc2[nH]nc(C(C)(C)C)c21 (stereo not shown),4.52
9,COc1ccc(-c2cc(C(=O)O)c3ccccc3n2)c(OC)c1,-2.63
10,O=C(Nc1cnn(Cc2ccc(F)cc2)c1)c1cc(-c2cccc(Cl)c2)on1,-4.43
11,Cc1cccc(CN2CCN(c3cccc(C(F)(F)F)c3)CC2)c1,-0.197
12,COc1ccc(Oc2c(C(F)(F)F)oc3c(CN4CCCCC4C)c(O)ccc3c2=O)cc1 (stereo not shown),0.343
13,O=C1/C(=C\c2cc3c(cc2Cl)OCO3)N2CCC1CC2,0.751
14,COc1ccc(S(=O)(=O)Cc2ccc(C(=O)N3CCOCC3)o2)cc1,3.57
15,CC1CCCC(C)N1CCCNC(=O)c1cnn(-c2ccccc2)c1-n1cccc1 (stereo not shown),-1.58
16,CC1CCCC(C)N1CCCNC(=O)c1nn(C)c2c1CS(=O)(=O)c1ccccc1-2 (stereo not shown),2.34
17,Cc1cccc(C(=O)N2CCc3ccccc32)c1,-2.54
18,Cc1c(Cl)cccc1NC(=O)Cc1ccccc1,-0.127
19,O=c1oc2ccccc2cc1-c1nc(-c2cccnc2)no1,4.51
20,Cn1c(-c2ccccc2)c(-c2ccccc2)s/c1=N\C(=O)c1cccnc1,3.58
21,COc1ccc(-c2cc(N)n(S(=O)(=O)Cc3ccccc3)n2)c(OC)c1,-2.19
22,COc1ccc(-c2nnc3n(CCCOC(C)C)c(=O)c4ccccc4n23)c(OC)c1,-1.72
23,COc1cccc(CNc2nc3c(S(=O)(=O)c4ccc(Cl)cc4)nnn3c3ccsc23)c1,-4.95
24,Cc1ccccc1CNC(=O)c1cnn(-c2ccccc2)c1-n1cccc1,-3.47
25,CN1C(=O)C(=Cc2ccc(SCc3ccc(Cl)cc3)o2)C(=O)N(C)C1=O,-7.13

row,SMILES,% Inhibition @ 10 uM [%]
1,CC(NC(=O)[C@H](Cc1c[nH]c2ccccc12)NC(=O)OC(C)(C)C)c1ccccc1 (stereo partly shown),-3.96
2,N#Cc1cn[nH]c1NCc1ccccc1O,4.57
3,CCN(CC)CCNC(=O)CCCCn1c(=S)[nH]c2c([nH]c3ccc(OC)cc32)c1=O,-0.704
4,CCOC(=O)c1ccc2c(c1)C1C=CCC1C(C(=O)O)N2 (stereo not shown),7.96
5,O=C1NC=C(c2ccccc2)C(c2ccccc2)N1 (stereo not shown),-4.58
6,CCCc1nn(-c2nc3ccccc3s2)c(O)c1/C(C)=N/CCO,-2.15
7,CC1CCCN(S(=O)(=O)c2ccc3nc(O)cc(C(=O)NCc4ccccc4Cl)c3c2)C1 (stereo not shown),2.05
8,Cc1c(NC(=O)c2cccnc2C(=O)O)cccc1C(=O)O,0.24
9,CSc1nsc(SC)c1NC(=O)OCc1ccccc1,29.6
10,COc1ccc2ncc(S(=O)(=O)c3ccc(Cl)cc3)c(N3CCN(C)CC3)c2c1,-10.2
11,O=C(Nc1sc2c(c1CN1CCOCC1)CCC2)c1ccc(F)cc1,6.1
12,CC1CCN(C(=O)Cn2cc(S(=O)(=O)N3CCCC3)c(S(=O)(=O)N3CCCC3)c2)CC1,4.83
13,Nc1cc(-c2ccccc2)nn1-c1ccc(C(=O)O)cc1,-3.5
14,CCn1cc(C(=O)Nc2ccc(Br)cc2C)cn1,-5.1
15,CCOC(=O)c1cc(-c2ccc(C)cc2)n(CCC(=O)NC2CCCCC2)c1C,-1.66
16,CC(=O)N1CCN(CCN2C(=O)C3C4c5ccccc5C(c5ccccc54)C3C2=O)CC1 (stereo not shown),1.64
17,COc1ccc(-c2ccc(Cc3nc(Cc4ccccc4)no3)cc2)cc1,4.23
18,CC(=O)Nc1sc2c(c1CN1CCCCC1)CCCC2,-6.68
19,COc1ccc2nc(C)c(C(N)=O)cc2c1,1.76
20,COc1ccc(-c2cc3c4c(C)n(-c5ccc(OC)cc5)c(C)c4c(C)nn3c2)cc1,-1.15
21,COc1ccccc1/C=C/c1nn2c(-c3cccc(Cl)c3)nnc2s1,2.89
22,O=C(Nc1cccc(-c2nc3ccccc3s2)c1)c1cc(Cl)cc(Cl)c1,6.83
